# According to the supplement of paper PMC6531468:
# The other results are listed elsewhere or left out. Values come from read counts of a selection and are noisy. Scores sum up all selected molecules that hold the word; the word was not tested alone.
# System: IMP3 KH1-4
# Assay: 6-mer SELEX enrichment z-score vs GST control; IMP3 is the RNA-binding protein IGF2BP3; higher = more enriched by binding
# Details: construct: KH1-4 (164-579); SELEX round: R4
# Procedure: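 SELEX-seq with GST-tagged IMP3 KH1-4 (Pro164-Lys579) and an N40 RNA pool, round 4. 6-mer z-score of sequence-tag enrichment normalised to the corresponding GST SELEX round; RNA k-mers written as DNA (T for U).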
# Chain of IMP3 KH1-4 (chain, as listed by the source): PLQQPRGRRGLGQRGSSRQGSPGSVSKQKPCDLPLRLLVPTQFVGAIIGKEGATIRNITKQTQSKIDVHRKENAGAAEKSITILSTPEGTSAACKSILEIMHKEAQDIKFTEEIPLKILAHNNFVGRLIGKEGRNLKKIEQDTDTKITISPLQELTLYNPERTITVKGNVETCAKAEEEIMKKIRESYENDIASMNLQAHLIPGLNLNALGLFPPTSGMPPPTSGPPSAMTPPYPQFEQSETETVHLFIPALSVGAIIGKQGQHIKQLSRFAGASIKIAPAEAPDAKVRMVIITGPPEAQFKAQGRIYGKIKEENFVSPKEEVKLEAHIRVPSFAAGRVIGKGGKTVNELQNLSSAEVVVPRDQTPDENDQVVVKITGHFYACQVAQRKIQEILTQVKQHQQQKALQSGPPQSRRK
row,Sequence,6-mer SELEX enrichment z-score
1,CACTTA,1.24
2,ATCCCC,0.016
3,ATCTCA,-0.086
4,ATTTTA,1.47
5,GCCAGG,0.343
6,CGACTA,-0.617
7,CTAGTT,-0.201
8,CCGCGT,-1.97
9,GGGATG,0.815
10,CCAACA,-1.02
11,TATAAC,1.53
12,ATCGTC,-0.028
13,GGTAGC,-0.414
14,GGTTAC,-0.205
15,GTGGCG,0.454
16,TGTGTC,-0.127
17,CATTTA,1.46
18,TTCTTG,-0.272
19,GTGCGG,0.452
20,AAGCAG,0.13

row,Sequence,6-mer SELEX enrichment z-score
1,CTCCCA,-0.506
2,AAGGGG,0.972
3,GGGGGT,0.519
4,GTGAGC,-1.24
5,TTCCAG,0.502
6,CCCCCA,0.426
7,TAACAT,2
8,ATATTG,1.3
9,TCGCAT,0.748
10,CGACAT,-0.128
11,CAGTCC,0.976
12,AGTAAT,0.456
13,TAGTCA,0.173
14,CCTATA,0.439
15,CGTCCA,-0.338
16,GTGTGA,0.517
17,GGGTGT,-0.31
18,ATCCTC,0.198
19,ATAGCT,0.313
20,TTATGA,0.909

# System: IMP3 RRM1-2
# Sequence (chain, as listed by the source): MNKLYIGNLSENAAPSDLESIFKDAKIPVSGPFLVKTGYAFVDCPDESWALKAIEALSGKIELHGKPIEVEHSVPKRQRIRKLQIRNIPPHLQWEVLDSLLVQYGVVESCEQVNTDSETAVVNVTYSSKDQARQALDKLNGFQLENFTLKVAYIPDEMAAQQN
# Assay: as above
# Details: construct: RRM1-2 (1-163); SELEX round: R2
# Procedure: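 SELEX-seq with GST-tagged IMP3 RRM1-2 (Met1-Asn163) and an N40 RNA pool, round 2. 6-mer enrichment z-score normalised to GST SELEX. RNA written as DNA (T = U).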
row,Sequence,6-mer SELEX enrichment z-score
1,CACTTA,0.633
2,ATCCCC,-0.814
3,ATCTCA,0.733
4,ATTTTA,0.21
5,GCCAGG,-0.262
6,CGACTA,-0.3
7,CTAGTT,0.333
8,CCGCGT,-0.186
9,GGGATG,-0.092
10,CCAACA,1.76
11,TATAAC,-0.307
12,ATCGTC,0.3
13,GGTAGC,0.246
14,GGTTAC,0.263
15,GTGGCG,0.307
16,TGTGTC,0.269
17,CATTTA,0.919
18,TTCTTG,0.523
19,GTGCGG,0.153
20,AAGCAG,0.036

row,Sequence,6-mer SELEX enrichment z-score
1,CTCCCA,-0.306
2,AAGGGG,-0.237
3,GGGGGT,0.371
4,GTGAGC,-0.212
5,TTCCAG,0.146
6,CCCCCA,-0.822
7,TAACAT,0.794
8,ATATTG,0.025
9,TCGCAT,0.546
10,CGACAT,0.17
11,CAGTCC,0.3
12,AGTAAT,-0.201
13,TAGTCA,0.406
14,CCTATA,-0.359
15,CGTCCA,0.084
16,GTGTGA,-0.238
17,GGGTGT,0.398
18,ATCCTC,0.152
19,ATAGCT,0.12
20,TTATGA,-0.265

# Molecular target: IMP3 full-length (UniProt O00425)
# Chain of UniProt O00425 (O00425 whole entry): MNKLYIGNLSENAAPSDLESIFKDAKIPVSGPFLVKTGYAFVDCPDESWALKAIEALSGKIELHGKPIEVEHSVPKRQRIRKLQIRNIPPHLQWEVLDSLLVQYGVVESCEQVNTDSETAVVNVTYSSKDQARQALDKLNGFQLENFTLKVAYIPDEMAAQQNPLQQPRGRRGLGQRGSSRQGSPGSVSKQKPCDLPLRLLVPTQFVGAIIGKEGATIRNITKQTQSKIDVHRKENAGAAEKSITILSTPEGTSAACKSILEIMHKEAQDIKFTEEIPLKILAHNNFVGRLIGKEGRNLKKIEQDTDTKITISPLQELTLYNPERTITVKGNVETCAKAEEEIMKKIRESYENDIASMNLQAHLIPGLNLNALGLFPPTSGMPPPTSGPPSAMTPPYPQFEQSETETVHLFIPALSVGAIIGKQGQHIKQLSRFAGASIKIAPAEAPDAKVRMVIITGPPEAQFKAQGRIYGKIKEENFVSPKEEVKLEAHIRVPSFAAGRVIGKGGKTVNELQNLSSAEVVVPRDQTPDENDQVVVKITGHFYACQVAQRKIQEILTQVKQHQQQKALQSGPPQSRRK
# Assay: as above
# Details: construct: FL IMP3 (1-579); SELEX round: R4
# Procedure: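 SELEX-seq with GST-tagged full-length IMP3 and an N40 RNA pool, round 4. Each 6-mer is scored as an enrichment z-score of sequence tags containing it, normalised to the matching GST SELEX round. RNA written as DNA (T = U).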
row,Sequence,6-mer SELEX enrichment z-score
1,CACTTA,0.544
2,ATCCCC,-0.612
3,ATCTCA,0.509
4,ATTTTA,0.42
5,GCCAGG,0.671
6,CGACTA,-0.701
7,CTAGTT,-0.122
8,CCGCGT,-0.799
9,GGGATG,0.238
10,CCAACA,0.263
11,TATAAC,-0.079
12,ATCGTC,0.415
13,GGTAGC,0.077
14,GGTTAC,-0.054
15,GTGGCG,0.533
16,TGTGTC,0.021
17,CATTTA,0.969
18,TTCTTG,-0.045
19,GTGCGG,0.843
20,AAGCAG,0.339

row,Sequence,6-mer SELEX enrichment z-score
1,CTCCCA,-0.686
2,AAGGGG,0.145
3,GGGGGT,0.433
4,GTGAGC,-0.394
5,TTCCAG,-0.038
6,CCCCCA,-0.619
7,TAACAT,1.22
8,ATATTG,0.284
9,TCGCAT,0.766
10,CGACAT,0.567
11,CAGTCC,0.779
12,AGTAAT,-0.039
13,TAGTCA,0.206
14,CCTATA,-0.356
15,CGTCCA,0.428
16,GTGTGA,-0.208
17,GGGTGT,0.049
18,ATCCTC,-0.122
19,ATAGCT,0.15
20,TTATGA,-0.208

# System: IMP3 KH1-2
# Sequence (chain, as listed by the source): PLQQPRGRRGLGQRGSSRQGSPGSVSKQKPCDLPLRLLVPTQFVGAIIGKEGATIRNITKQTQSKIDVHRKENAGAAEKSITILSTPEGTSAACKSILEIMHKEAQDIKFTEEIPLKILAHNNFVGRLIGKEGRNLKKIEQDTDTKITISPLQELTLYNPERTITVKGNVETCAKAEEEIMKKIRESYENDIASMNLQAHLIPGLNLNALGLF
# Assay: as above
# Details: construct: KH1-2 (164-376); SELEX round: R4
# Procedure: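 SELEX-seq with GST-tagged IMP3 KH1-2 (Pro164-Phe376) and an N40 RNA pool, round 4 (stringent 300/600 mM KCl washes). 6-mer z-score of sequence-tag enrichment normalised to the corresponding GST SELEX round; RNA k-mers written as DNA (T for U).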
row,Sequence,6-mer SELEX enrichment z-score
1,CACTTA,1.17
2,ATCCCC,0.012
3,ATCTCA,0.053
4,ATTTTA,1.4
5,GCCAGG,0.314
6,CGACTA,-0.561
7,CTAGTT,-0.202
8,CCGCGT,-1.68
9,GGGATG,0.829
10,CCAACA,-0.568
11,TATAAC,1.48
12,ATCGTC,-0.15
13,GGTAGC,-0.323
14,GGTTAC,-0.246
15,GTGGCG,0.505
16,TGTGTC,-0.115
17,CATTTA,1.44
18,TTCTTG,-0.186
19,GTGCGG,0.472
20,AAGCAG,0.067

row,Sequence,6-mer SELEX enrichment z-score
1,CTCCCA,-0.385
2,AAGGGG,1.39
3,GGGGGT,0.996
4,GTGAGC,-1.06
5,TTCCAG,0.258
6,CCCCCA,1.02
7,TAACAT,2.04
8,ATATTG,0.943
9,TCGCAT,0.538
10,CGACAT,-0.214
11,CAGTCC,0.631
12,AGTAAT,0.304
13,TAGTCA,-0.026
14,CCTATA,0.324
15,CGTCCA,-0.307
16,GTGTGA,0.18
17,GGGTGT,-0.115
18,ATCCTC,0.179
19,ATAGCT,0.304
20,TTATGA,0.604

# System: IMP3 KH3-4
# Sequence (chain, as listed by the source): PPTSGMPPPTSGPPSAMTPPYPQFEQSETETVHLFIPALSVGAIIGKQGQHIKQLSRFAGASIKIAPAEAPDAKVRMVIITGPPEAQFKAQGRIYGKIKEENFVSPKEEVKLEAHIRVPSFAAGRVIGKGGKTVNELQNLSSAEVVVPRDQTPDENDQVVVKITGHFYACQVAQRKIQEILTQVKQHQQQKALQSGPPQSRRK
# Assay: as above
# Details: construct: KH3-4 (377-579); SELEX round: R4
# Procedure: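 SELEX-seq with GST-tagged IMP3 KH3-4 (Pro377-Lys579) and an N40 RNA pool, round 4. 6-mer z-score of sequence-tag enrichment normalised to the corresponding GST SELEX round; RNA k-mers written as DNA (T for U).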
row,Sequence,6-mer SELEX enrichment z-score
1,CACTTA,0.971
2,ATCCCC,-1.2
3,ATCTCA,-0.293
4,ATTTTA,2.32
5,GCCAGG,0.187
6,CGACTA,-0.643
7,CTAGTT,-0.081
8,CCGCGT,-1.72
9,GGGATG,0.803
10,CCAACA,-1.66
11,TATAAC,2.09
12,ATCGTC,-0.147
13,GGTAGC,-0.242
14,GGTTAC,-0.179
15,GTGGCG,0.783
16,TGTGTC,-0.039
17,CATTTA,1.62
18,TTCTTG,-0.074
19,GTGCGG,0.535
20,AAGCAG,0.12

row,Sequence,6-mer SELEX enrichment z-score
1,CTCCCA,-1.05
2,AAGGGG,1.38
3,GGGGGT,0.788
4,GTGAGC,-0.955
5,TTCCAG,0.177
6,CCCCCA,-0.851
7,TAACAT,2.38
8,ATATTG,1.52
9,TCGCAT,0.422
10,CGACAT,-0.396
11,CAGTCC,-0.086
12,AGTAAT,0.725
13,TAGTCA,0.166
14,CCTATA,0.245
15,CGTCCA,-0.68
16,GTGTGA,0.381
17,GGGTGT,-0.043
18,ATCCTC,-0.324
19,ATAGCT,0.416
20,TTATGA,1.32
